From PubChem BioAssay AID686978 (National Center for Advancing Translational Sciences (NCATS), 2013)
Among all 420,000 compounds or so, about 64,000 (15%) were called active. This list was built around the results that the source calls inconclusive (neither active nor inactive); the mix of calls is not that of the screen. Calls follow the shape of the dose curve; as a rule, active = well fitted inhibition curve with a large enough effect; inconclusive = small, poorly fitted or top-dose-only effect; inactive = flat fitted curve, though single readings scatter. No potency is given beside an inconclusive call; the fits are too rough.
% is scaled to controls: 0 for no effect and ±100 for the full control effect; potency is read from the fitted curve at half-maximal effect; tags tell the direction and shape of the fitted curve.

Test: qHTS for Inhibitors of human tyrosyl-DNA phosphodiesterase 1 (TDP1): qHTS in cells in absence of CPT; also: nearly all actives have a fitted effect of over 55% in size
Conditions: DT40 Tdp1-/- hTDP1 cells, no CPT, ATP luminescence, 48 h; activity change, negative = growth inhibition: at 46.2 µM (top of the series) unless noted
How it was run: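 Stably hTDP1-transfected Tdp1-null chicken DT40 cells were treated with library compounds minus camptothecin and grown for at least 48 hr at 37 °C, after which cellular ATP was quantified by luminescence.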
With `Cc1cc(Cl)ccc1NC(=S)NCc1ccc(F)cc1` the Potency was inconclusive [inhibitor, partial curve]. With `CCOc1c(Cl)cnn(-c2ccc(C)cc2)c1=O` the Potency was inconclusive [inhibitor, partial curve]. For `CC(=O)Nc1cccc(-c2ccnc3c2CC(C)(C(=O)NCc2ccc(F)c(F)c2)O3)c1` (stereo not given), the Potency was active: 3.66 µM. For `Cn1nnnc1SCC(=O)N1CCN(c2cccc(Cl)c2)CC1`, the Potency was inconclusive [inhibitor, single point]. In the case of `Cc1ccc2c(CC(=O)N3CCN(S(=O)(=O)c4ccc5c(c4)OCCO5)CC3)coc2c1`, the Potency was inconclusive [inhibitor, partial curve, poor fit]. With `O=C(/C=C/c1ccco1)NC(=S)Nc1ccccc1` the Potency was active: 25.9 µM. With `COc1ccc(CN2CCOc3c(cc(-c4ncc(C(F)(F)F)cc4Cl)cc3OCC3CCCO3)C2)c(O)c1` (stereo not given) the Potency was inconclusive [inhibitor, single point]. In the case of `CC(=O)Nc1cc(-c2ccoc2)cn2c(-c3ccccc3)cnc12`, the Potency was active: 0.92 µM. For `CCOc1ccc(NC(=O)Nc2nc(SCC)ns2)cc1`, the Potency was inconclusive [inhibitor, single point]. For `CCOC(=O)C1=C(Nc2ccccc2)CC(C)(O)C(C(=O)OCC)C1c1ccc(Cl)cc1` (stereo not given), the Potency was inconclusive [inhibitor, single point]. In the case of `CCCCc1ccc(NC(=O)N[C@@H](C)C(=O)O)cc1`, the Potency was active: 5.17 µM. For `Cc1sc2ccccc2[n+]1C`, the Potency was active: 3.16 µM. With `CC(C)c1c(C(=O)N/N=C/c2cccs2)nnn1-c1nonc1N` the “activity change, negative = growth inhibition” value was inactive: 2.68%. In the case of `CCC(C)NC(=O)CSc1c2c(nc3cc(Cl)ccc13)CCCC2` (stereo not given), the Potency was inconclusive [inhibitor, partial curve]. For `O=C(COc1ccccc1F)N1N=C(c2cccs2)CC1c1ccco1` (stereo not given), the Potency was inconclusive [inhibitor, single point]. For `CC(CNC(=O)[C@@H](Cc1ccccc1)NC(=O)CC[C@H]1O[C@@H](n2ccc(=O)[nH]c2=O)[C@H](O)[C@@H]1O)c1ccccc1` (stereo not given in full), the “activity change, negative = growth inhibition” value was inactive: 36.3%. In the case of `COc1ccc(CN(C)C(=O)c2ccc(OCC(=O)Nc3cccc(C(F)(F)F)c3)c(OC)c2)cc1`, the Potency was inconclusive [inhibitor, single point]. In the case of `Cc1cccc(NC(=O)c2csnn2)n1`, the “activity change, negative = growth inhibition” value was inactive: -0.731%. For `CCOc1ccc(NC(=O)CSc2nnc(CNC(=O)C34CC5CC(CC(C5)C3)C4)n2CC)cc1`, the Potency was inconclusive [inhibitor, partial curve, poor fit]. With `O=C(Nc1ccccc1Cl)c1cc2ccccc2o/c1=N\O` the Potency was active: 10.3 µM. In the case of `COc1cc(CO)ccc1Oc1nc2ccccc2n2cnnc12`, the Potency was inconclusive [inhibitor, partial curve]. With `O=C(Nc1ccc(C(=O)N2CCCC2)cc1)Nc1ccc(Cl)cc1Cl` the “activity change, negative = growth inhibition” value was inactive: -26.9%. For `Cc1ccc2c(CC(=O)NNC(=O)c3ccncc3)coc2c1`, the “activity change, negative = growth inhibition” value was inactive: -10.8%. In the case of `Cc1cc2oc(C(=O)Nc3cccc(-c4nc5ccccc5o4)c3)c(C)c2cc1C`, the Potency was inconclusive [inhibitor, partial curve]. In the case of `COc1ccc(-n2nc3cc(C)c(NC(=O)Cc4ccc(Cl)cc4)cc3n2)cc1`, the “activity change, negative = growth inhibition” value was inactive: -7.12%. With `CCCN(CCC)Cc1c(C(=O)N/N=C/c2ccc(Br)cc2)nnn1-c1nonc1N` the “activity change, negative = growth inhibition” value was inactive: -25.3%. With `Cc1ccc(C(=O)ON=C2CCN(c3ccc([N+](=O)[O-])cc3)CC2)cc1` the Potency was inconclusive [inhibitor, single point]. For `CCn1c(=O)c(C(=O)NCc2ccccc2)c(O)c2ccccc21`, the Potency was inconclusive [inhibitor, full curve, poor fit]. In the case of `CCOC(=O)CN1C(c2ccc(O)cc2)Nc2ccc(Br)cc2C1c1ccccc1` (stereo not given), the Potency was inconclusive [inhibitor, single point]. With `CSCCC(NC(=O)c1ccc(Cl)c([N+](=O)[O-])c1)C(=O)N1CCN(C/C=C/c2ccccc2)CC1` (stereo not given) the Potency was inconclusive [inhibitor, single point]. For `CCc1ccc(NC(=O)CSc2nc(-c3cccc(OC)c3)nc3c2Cc2c(CO)cnc(C)c2O3)cc1`, the Potency was active: 7.31 µM. For `CC(Oc1ccccc1)C(=O)Nc1ccccc1C(=O)OCc1cc(=O)n2nc(C(C)C)sc2n1` (stereo not given), the Potency was active: 20.6 µM. For `COC(=O)CNc1cc(S(=O)(=O)N2CCCCC2)ccc1Oc1cccc(C)c1`, the activity change, negative = growth inhibition was inconclusive: -36.4% [inhibitor]. In the case of `O=C(NCCc1ccccc1)c1ccc(Cn2c(SCc3ccccc3F)nc3cccnc32)cc1`, the Potency was active: 18.4 µM. In the case of `CCN(CC)c1nc(C#N)cc(-c2ccc(OC)cc2)n1`, the Potency was active: 10.3 µM. In the case of `COc1ccc(CCNC(=O)C(=O)NCc2ccc(C(C)C)cc2)cc1OC`, the Potency was inconclusive [inhibitor, single point]. For `CCN(C(=O)CSc1ccc2ccccc2n1)C1CCCCC1`, the Potency was inconclusive [inhibitor, single point]. In the case of `O=C(CCC(=O)N1CCOc2ccccc21)NCCN1CCOCC1`, the “activity change, negative = growth inhibition” value was inactive: 28.4%. With `CCOC(=O)C1C(c2ccc3c(c2)OCO3)NC(=O)NC1(O)C(F)(F)F` (stereo not given) the Potency was active: 13 µM. For `O=C1CCCN1c1ccc(C(=O)N(Cc2nnc(-c3ccccc3Cl)o2)C2CC2)cc1`, the Potency was inconclusive [inhibitor, single point]. In the case of `Cc1ccc(NC(=O)CNc2cccc(S(=O)(=O)N3CCOCC3)c2)cc1F`, the Potency was inconclusive [inhibitor, single point]. In the case of `CCCc1cc(=O)[nH]c(Nc2cc(C)cc(C)c2)n1`, the Potency was inconclusive [inhibitor, single point]. For `COc1cc(C(=O)N(Cc2ccc(N(C)C)cc2)CC2CCCO2)cc(OC)c1OC` (stereo not given), the Potency was inconclusive [inhibitor, single point]. In the case of `Cc1cn([C@H](C(=O)NCCCCCCCCCCC(=O)N2CCNCC2)[C@@H](C)O)nn1`, the Potency was inconclusive [inhibitor, partial curve, poor fit]. For `CCOc1cc2c3c(c1)C1(C(=O)N3C(C)(C)CC2C)C(C#N)=C(N)N2C(=C1C#N)Nc1ccccc12` (stereo not given), the Potency was inconclusive [inhibitor, single point].
